# The list shows a part of the results. Antibody binding of pooled human sera (four to six donors per pool; dilution not stated) to peptides of the Trypanosoma cruzi antigen TSSA on microarrays. Quantile-normalised fluorescence in arbitrary units, mean of duplicate arrays; higher = more binding. No active / inactive call. The uninfected pools are read here as the healthy donors of the same country. The strongest signals lie near the top of the scale (about 60,000).
# How the values were obtained:
# Test in all cases: antibody binding signal (normalised fluorescence) (arbitrary fluorescence units); higher = stronger serum antibody binding to peptide
# [1] = test system: pooled sera of chronic Chagas disease patients, Argentina
# Protocol: (§1)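 Microarray of 15-residue peptides over residues 30-55 of Trypanosoma cruzi TSSAII, each with 1 to 10 substitutions at naturally variable positions, probed with one serum pool per country.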
# [2] = test system: pooled sera of chronic Chagas disease patients, Bolivia
# Protocol: as §1
# [3] = test system: pooled sera of chronic Chagas disease patients, Brazil
# Protocol: as §1
# [4] = test system: pooled sera of chronic Chagas disease patients, Colombia
# Protocol: as §1
# [5] = test system: pooled sera of chronic Chagas disease patients, Mexico
# Protocol: as §1
# [6] = test system: pooled sera of chronic Chagas disease patients, USA
# Protocol: as §1
# [7] = test system: pooled sera of uninfected people, Argentina
# Protocol: as §1
# [8] = test system: pooled sera of uninfected people, Bolivia
# Protocol: as §1
# [9] = test system: pooled sera of uninfected people, Brazil
# Protocol: as §1
# [10] = test system: pooled sera of uninfected people, Mexico
# Protocol: as §1
# [11] = test system: pooled sera of uninfected people, USA
# Protocol: as §1
Sequence,antibody binding signal [1],antibody binding signal [2],antibody binding signal [3],antibody binding signal [4],antibody binding signal [5],antibody binding signal [6],antibody binding signal [7],antibody binding signal [8],antibody binding signal [9],antibody binding signal [10],antibody binding signal [11]
EKKPATGGTPSQPGA,1010,692,2620,2420,655,795,523,777,1160,479,717
TPPSGKENKPAAGEA,27100,40000,13200,528,10100,13300,1660,2100,426,304,425
SGKDNKPAAGGAPSP,987,363,7670,2180,1130,1630,406,449,130,199,135
TPPSGKENKPATGGT,17600,8070,11400,379,5150,12900,3410,2340,867,310,547
DKKPAAGGAPSQSGA,508,216,340,3950,288,474,193,149,255,90.8,179
DNKAAAGGTPSPPGA,301,254,312,2920,250,992,179,407,1690,468,111
GKENKTAAGGTPSQP,1290,246,2950,4090,2120,8990,534,86.8,205,949,143
PSGTEKKTATGGTPS,11700,875,3430,5500,4620,4970,531,299,229,215,367
PPSGTDNKAATGGAP,28200,37100,45600,1060,1640,5420,1310,1060,1630,333,645
GKDKKPATGEAPSPS,42300,9370,39600,2900,3130,31400,762,227,113,103,123
TEKKTATGEAPSPSG,11800,27200,12500,387,480,21800,208,162,244,191,222
SGKDKKTAAGGAPSP,386,189,277,4380,910,984,139,107,115,102,139
TDKKPAAGGAPSPSG,687,206,575,5890,377,839,178,918,307,135,207
PSGKDKKPAAGEAPS,5670,3180,6790,9710,7670,12900,148,629,118,64.1,109
GTDNKTATGGAPSQS,868,545,29500,984,881,567,368,709,1960,368,178
KPATGGTPSQSGASS,508,252,370,301,592,187,313,620,177,374,206
PSGKDNKAATGGTPS,2470,383,2650,4440,3800,3480,261,199,144,89,102
EKKPAAGEAPSPSGA,1210,325,11200,583,259,13900,214,913,200,250,793
DKKTATGEAPSPSGA,10200,14000,8990,202,631,19900,284,100,166,238,170
KDKKTATGGAPSPSG,462,219,249,1200,262,476,206,79.7,95.2,84.7,124
GTEKKPAAGGAPSPS,472,195,464,4570,755,1130,201,797,823,257,1430
GKDKKPAAGGAPSPS,243,203,147,1440,560,561,119,80.6,104,87.7,95.1
GKEKKPATGGTPSQS,3060,331,301,1600,1980,2050,173,130,265,137,253
PPSGKDKKAATGEAP,16000,3870,9830,1240,16500,17800,413,299,101,85.7,117
KDNKPATGEAPSQSG,46300,46000,52300,268,237,43000,1190,839,304,444,126
GKEKKAAAGGAPSPP,825,246,257,3260,954,1100,96.7,80,113,88,106
DKKTAAGETPSQSGA,359,418,1220,304,366,835,106,213,206,728,179

Sequence,antibody binding signal [1],antibody binding signal [2],antibody binding signal [3],antibody binding signal [4],antibody binding signal [5],antibody binding signal [6],antibody binding signal [7],antibody binding signal [8],antibody binding signal [9],antibody binding signal [10],antibody binding signal [11]
KEKKTATGGTPSQPG,385,254,223,1410,282,1270,347,87.8,130,290,99.8
GTENKPATGEAPSPS,47100,46700,49100,1700,3350,39800,1030,1430,475,226,151
GKENKPATGEAPSQS,47700,26600,51900,16800,16600,46600,1430,851,326,360,149
GTDKKPATGEAPSQP,46500,39300,50500,5800,564,39100,870,646,334,699,203
GKENKAAAGGAPSQP,825,233,7900,3530,2360,8450,302,94.6,93.4,86.2,94.7
KENKTATGGTPSPSG,251,276,319,532,234,397,224,102,135,110,137
SGTDKKAATGEAPSP,20400,36600,28800,1950,360,25000,413,131,234,579,175
KEKKPAAGEAPSQPG,3350,2000,31900,157,179,11200,95.8,80.8,88.1,73.6,359
PPSGKDNKAATGEAP,21100,28100,25300,544,4090,23400,385,501,217,125,183
DKKAAAGEAPSQPGA,5640,7500,38900,293,287,10800,143,188,151,153,160
GTEKKPAAGEAPSPS,2080,542,6470,995,1340,14300,153,1070,1750,382,896
GTDNKTAAGGAPSQS,292,332,23800,4660,546,507,350,624,2070,305,202
SGKEKKPATGGAPSP,4470,863,5310,3080,3710,5100,293,596,87.5,97.7,235
GKDKKPAAGEAPSQS,442,1190,7260,757,1130,11100,95.3,85,85.2,65,66.6
SSTPPSGTDKKAATG,35600,7760,35900,8880,44600,5700,591,127,157,1490,251
KKPAAGGAPSQPGAS,162,190,1590,1420,195,179,253,242,107,79.2,239
EKKPATGEAPSQPGA,46600,47600,51200,433,434,42700,916,1100,399,480,934
TEKKAATGEAPSPPG,19900,31000,26100,404,576,21200,524,130,205,161,260
TDKKPAAGGAPSPPG,408,219,493,5280,273,1120,221,997,301,135,176
KDNKAATGEAPSPPG,23000,13400,33800,196,218,25200,358,1050,186,77.4,97
ISTPPSGTDNKPAAG,51400,45700,50600,9420,28900,34400,1500,721,826,1670,624
PSGKDNKTAAGGAPS,2120,460,3300,8170,4970,4250,353,206,142,97.2,130
SGKDNKPATGGAPSP,1730,914,11100,1390,1140,3370,504,1180,138,187,159
GKENKAAAGEAPSQP,11600,6560,39100,15900,16900,23100,355,146,99.5,121,88.8
GTDKKTAAGGAPSQS,181,310,183,5490,480,417,143,221,122,141,112
KEKKPAAGEAPSPPG,267,225,3990,157,148,10800,113,73.2,123,73.3,370

# Reference: the supplement of paper PMC10441789
